# Experimental data taken from the supplement of paper PMC3334620.
# The full ranking holds about 33,000 sequences; the median of “E-score (-0.5 to 0.5)” is about -0.041, and the highest 2% start at about 0.37. The list shows a part of the results.
# Target: T1, Ecm22 (UniProt Q05958)
# T1 sequence: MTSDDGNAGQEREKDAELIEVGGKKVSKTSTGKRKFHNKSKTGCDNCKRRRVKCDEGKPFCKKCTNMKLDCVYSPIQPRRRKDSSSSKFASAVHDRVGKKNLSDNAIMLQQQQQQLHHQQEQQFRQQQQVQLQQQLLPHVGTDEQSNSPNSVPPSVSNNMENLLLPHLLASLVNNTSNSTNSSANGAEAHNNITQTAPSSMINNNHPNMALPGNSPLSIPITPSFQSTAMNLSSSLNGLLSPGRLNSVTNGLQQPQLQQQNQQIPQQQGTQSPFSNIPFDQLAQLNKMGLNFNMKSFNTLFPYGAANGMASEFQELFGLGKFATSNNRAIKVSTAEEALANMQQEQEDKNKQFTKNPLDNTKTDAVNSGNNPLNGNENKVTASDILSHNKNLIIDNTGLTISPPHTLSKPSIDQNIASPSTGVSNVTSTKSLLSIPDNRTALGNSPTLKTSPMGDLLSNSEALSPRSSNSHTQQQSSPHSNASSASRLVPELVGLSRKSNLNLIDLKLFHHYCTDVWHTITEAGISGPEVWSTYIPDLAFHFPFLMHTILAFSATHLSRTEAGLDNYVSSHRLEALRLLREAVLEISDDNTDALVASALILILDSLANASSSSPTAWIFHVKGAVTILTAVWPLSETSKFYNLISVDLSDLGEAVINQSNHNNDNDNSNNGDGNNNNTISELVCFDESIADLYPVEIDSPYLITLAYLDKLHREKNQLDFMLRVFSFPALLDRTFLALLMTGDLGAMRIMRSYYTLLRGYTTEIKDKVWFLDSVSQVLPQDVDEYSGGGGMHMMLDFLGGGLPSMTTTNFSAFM
# Experiment: PBM E-score (8-mer binding enrichment) (E-score (-0.5 to 0.5)); higher = stronger / more preferred TF binding; most listed sequences are background and not binding sites
# Conditions: protein concentration: 200 nM; construct: GST-full length
# Procedure, shortened: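 E-scores (a modified Wilcoxon-Mann-Whitney statistic) were assigned by the Universal PBM Analysis Suite to every ungapped eight-base word pooled with its reverse complement. The input came from universal all-10-mer Agilent arrays made double-stranded by primer extension and probed with GST-tagged yeast transcription factors at about 100-200 nM. Fluorescent anti-GST detected bound protein, and masliner normalised the scans.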
row,Sequence,PBM E-score
1,TAAATTAA,0.108
2,ATTGCACC,-0.233
3,CCTTGATA,0.0127
4,ATATTAAT,0.189
5,GGCGCTTA,-0.169
6,ATCTAGCA,-0.13
7,ATATCTGC,-0.0258
8,ACGATAAA,0.25
9,ACGTCCCT,-0.147
10,AAAGTAGG,-0.0199
11,AGAGGCTG,-0.33
12,GCCTTGGA,-0.2
13,AACTCTCT,-0.192
14,ACATGTAA,0.00082
15,GTTGACTA,-0.0796
16,ACTGCCCG,-0.0123
17,TAGGCCCA,-0.296
18,CTCAAACA,0.0429
19,CGGCCGGA,-0.113
20,TCTAACCA,-0.0569
21,CCTACAGC,-0.318
22,AAACATTA,-0.0972
23,CCCACAGG,-0.125
24,CCGCTTAG,0.00496
25,TGAGGACA,0.0147

row,Sequence,PBM E-score
1,AAGCACGG,0.0886
2,AAGTCAAA,-0.0621
3,GCTCGCAC,0.292
4,CCCTTGTA,-0.0979
5,GTGATTTA,-0.0466
6,TAGGCACA,-0.249
7,CAGAGATC,-0.206
8,TCCGGGAA,-0.124
9,AATTTTTG,-0.201
10,CCCTCACG,-0.288
11,AATCGTGG,-0.165
12,GGGTTGAC,-0.206
13,AAAAGGAG,-0.0638
14,GCATGCCC,0.00907
15,ATCCAGTA,0.0422
16,AGACGACG,0.23
17,CAGAAATA,-0.07
18,AACGGCAC,0.22
19,CTCCGAAG,0.136
20,ATGCCCTC,-0.029
21,GAGCTCGA,0.237
22,CTACAGAA,0.0488
23,CCTTTGTC,0.0478
24,ATCATCGC,0.0962
25,GCGCCCGC,-0.173

row,Sequence,PBM E-score
1,GCGATCCC,-0.0537
2,TCAATTGA,0.173
3,GCAAGAAC,0.116
4,CCAGCGCG,0.0459
5,CATCGGTC,0.132
6,CATCTTCA,-0.258
7,CAGAGATG,-0.19
8,CCTGACTC,-0.0986
9,AGACCTTC,-0.0826
10,GCCCATCA,-0.0951
11,AACTGAAA,-0.0774
12,CCCAAGAC,-0.239
13,CTCTCGCA,0.0954
14,CTTGGGCC,-0.135
15,AAATATGG,-0.0875
16,ATCAAGGG,-0.149
17,GTATCAAC,-0.0727
18,CAGGATTA,-0.13
19,CGAGCACC,0.216
20,ACGACGAT,0.325
21,TACGCATA,0.303
22,TATCGAAA,0.145
23,CTTGTCGC,0.125
24,ACTGAGAT,-0.052
25,AACTAAAG,-0.0962

row,Sequence,PBM E-score
1,AGGGAACA,-0.166
2,AAGTTCAT,-0.0862
3,AGGGAGTA,-0.206
4,CACGTTGC,0.119
5,GGACCCCC,-0.251
6,GAGCGCGC,0.185
7,AGGTCGAC,-0.0604
8,AGGCGGCC,-0.182
9,AGACCACC,-0.179
10,ACTTGCAC,-0.123
11,AAACGTAT,0.319
12,GCGCAAAA,-0.0207
13,AAATGTGG,-0.0721
14,ACCGTAAA,0.326
15,ACTGGCAA,-0.2
16,ATGGGGCG,-0.148
17,TCTGGCCA,-0.217
18,ATCGACGC,0.0291
19,GCGATACC,-0.0421
20,CCTTAGCA,-0.287
21,AGAACTGA,0.113
22,GGCCAGAC,-0.284
23,GCGGTTGA,-0.0818
24,GGATTAAA,-0.061
25,ATTTAGTA,0.0461

row,Sequence,PBM E-score
1,GGCCAACC,-0.0544
2,ACACTCCT,-0.163
3,AATGATAA,0.0159
4,AATTCCAC,-0.0657
5,ACGATGCA,0.344
6,ATAGTAGA,-0.0235
7,ACTGTTGA,-0.238
8,AGTATCTG,-0.132
9,TATATGAA,0.162
10,GAGGTATA,0.151
11,ATGTTCAA,-0.175
12,CGTGGTTA,-0.028
13,CGAAAGCC,-0.0951
14,ACAATGCA,-0.0318
15,CAGGTTGG,-0.0277
16,CCGCACGG,-0.257
17,CCGCCTTA,-0.164
18,AAGTTCCT,-0.108
19,AGTACTAA,0.0573
20,AGTCCGTC,-0.217
21,AAGACACG,0.188
22,AGATTCCA,-0.11
23,CAACTCAC,-0.13
24,GCAGAATA,0.0132
25,ACGAGCCC,0.365

row,Sequence,PBM E-score
1,ATACCGAA,0.22
2,ATTCTATG,-0.0782
3,AGGATATG,-0.109
4,TGAACAAA,0.165
5,CAGTCTGG,-0.325
6,ATACGGGC,0.413
7,CTTTGCCC,-0.211
8,AGCGCGGA,-0.0298
9,ACGCACTA,0.103
10,ATCTATTA,-0.0343
11,AGACCCCC,-0.218
12,ATGTATGG,-0.0964
13,CCCCTGAA,0.033
14,CATCCAAG,-0.278
15,GCTAGTTA,-0.0992
16,AAGGGTAG,-0.154
17,CCTTCAAG,-0.257
18,AGCACGAT,0.116
19,GAAGGTTA,-0.016
20,ATAACTTC,0.00897
21,CCCTTGAG,-0.18
22,GCCACTGA,-0.0723
23,AAGGAGGA,0.0817
24,CCATAACG,0.00187
25,GAGCCTGA,-0.18

row,Sequence,PBM E-score
1,GGAAAATA,0.0993
2,AACGTCTA,0.0113
3,GACATACA,0.0198
4,ACTAACTG,-0.161
5,GTAGAGGA,-0.111
6,CATTTGTC,0.0578
7,GCCAGAGA,0.0314
8,CATGAGGG,-0.094
9,CATACTGA,-0.0759
10,ACCCTCGG,0.0481
11,GCTGTATA,0.0485
12,ACACTGGA,0.0175
13,AACGCCGT,0.128
14,AATCAGCG,0.0212
15,CCTATTGC,-0.0995
16,AAATACCT,-0.144
17,AAATTCTC,0.05
18,GCATGGGA,-0.216
19,GATCCCAA,-0.265
20,CGACCTGA,0.253
21,ATGGCAGG,-0.0293
22,GTCCGCAA,0.027
